Test results reported in PubChem BioAssay AID540317 (National Center for Advancing Translational Sciences (NCATS), 2011).
The whole screen tested about 390,000 compounds, of which about 2,200 (0.56%) were called active. Inconclusive results, whose numbers are uncertain, are shown with a selection of clear calls. Calls follow the shape of the dose curve; as a rule, active = well fitted inhibition curve with a large enough effect; inconclusive = small, poorly fitted or top-dose-only effect; inactive = no such curve, though single readings can be large or run the other way. Potencies of inconclusive entries are doubtful fits and often do not repeat.

Biological target: Chromobox protein homolog 1 (Homo sapiens) (UniProt P83916)
UniProt P83916, sequence (P83916 whole entry, looked up): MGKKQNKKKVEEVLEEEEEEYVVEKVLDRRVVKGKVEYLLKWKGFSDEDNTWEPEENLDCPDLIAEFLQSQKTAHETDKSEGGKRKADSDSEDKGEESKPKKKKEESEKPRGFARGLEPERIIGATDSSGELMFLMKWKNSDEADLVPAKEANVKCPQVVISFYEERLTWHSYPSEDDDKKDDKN
Assay: HTS for Inhibitors of HP1-beta Chromodomain Interactions with Methylated Histone Tails; also: nearly all actives have a fitted effect of over 70% in size
Settings: AlphaScreen HP1-beta / biotin-H3K9me3 peptide binding; series mostly up to 114 µM; activity change, negative = inhibition: at the top concentration
How it was run: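 HP1-beta protein (50 nM final) preincubated 30 min at room temperature with biotinylated H3(1-18)K9me3 peptide (50 nM) in PBS pH 7.4, 0.01% Tween-20, then compound added for 30 min. AlphaScreen streptavidin donor/nickel chelate acceptor beads (10 ug/mL final), 30 min dark, luminescence read.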
Potency is read from the fitted curve at half-maximal effect; tags tell the direction and shape of the fitted curve.

Row | Structure (SMILES) | activity change, negative = inhibition | Potency
1 | O=C(c1ccc2[nH]c(=O)c(=O)[nH]c2c1)N1CCN(c2ccccc2)CC1 | inactive: 20.9% | 
2 | CCN1CCCC1CNCc1ccc(OCc2ccc(Cl)nc2)c(OC)c1 (stereo not drawn) | inactive: 25.8% | 
3 | Cc1cn2c(nc(=O)c3cccnc32)s1 | inactive: 16.5% | 
4 | CCn1cc(/C=C(\NC(=O)c2ccc(OC)c(OC)c2)C(=O)N2CCOCC2)c2ccccc21 | inactive: 18.3% | 
5 | CC1SCC(=NOCc2ccccc2)CS1 (stereo not drawn) | inactive: 30.8% | 
6 | NC(=O)C1CCN(S(=O)(=O)c2cc3c(cc2Cl)NC(=O)CO3)CC1 |  | inconclusive: 89.1 µM [inhibitor, partial curve, poor fit]
7 | Oc1ccc(N=Nc2nccs2)c(O)c1 |  | inconclusive: 56.2 µM [inhibitor, single point]
8 | COc1ccc2sc(N(CCCN(C)C)C(=O)c3ccc(S(=O)(=O)N(C)Cc4ccccc4)cc3)nc2c1 |  | inconclusive: 56.2 µM [inhibitor, single point]
9 | COc1ccc(NC(=O)CSc2nnc(-c3ccco3)c(-c3ccco3)n2)cc1OC |  | inconclusive: 50.1 µM [inhibitor, partial curve, poor fit]
10 | Cc1nn(C(=O)c2c(F)cccc2F)c(C)c1S(=O)(=O)N1CCCCCC1 | inactive: 44.1% [at 57 µM] | 
11 | CC(NCc1ccc2c(c1)OCO2)C(=O)NC1CCCc2ccccc21 (stereo not drawn) |  | inconclusive: 79.4 µM [inhibitor, single point]
12 | Cc1ccc(NC(=O)CN2CCc3ccccc3C2)cc1F |  | inconclusive: 31.6 µM [inhibitor, single point]
13 | Cn1cccc1/C=C(/C#N)c1ccc(F)cc1 |  | inconclusive: 35.5 µM [inhibitor, partial curve]
14 | COc1cc(SC)ccc1C(=O)NCCc1c[nH]c2ccccc12 |  | inconclusive: 70.8 µM [inhibitor, partial curve]
15 | O=C(NNC1CC(=O)N(c2ccc(Br)cc2)C1=O)c1cccs1 (stereo not drawn) | inactive: 67.3% | 
16 | CCC(COC(C)=O)Nc1nc2c([nH]1)c(=O)n(C)c(=O)n2C (stereo not drawn) | inactive: 31.7% | 
17 | Cc1cc(C)n2nc(C(=O)OCC(=O)Nc3cc(S(=O)(=O)N4CCOCC4)ccc3Cl)nc2n1 | inactive: 44.2% | 
18 | O=C(Nc1ccc(S(=O)(=O)Nc2ccnn2-c2ccccc2)cc1)C(F)(F)F |  | inconclusive: 35.5 µM [inhibitor, single point]
19 | Cc1cccc(NC(=O)c2cc3cc([N+](=O)[O-])ccc3s2)n1 | inactive: 34.7% | 
20 | CCc1ccc(S(=O)(=O)Nc2cc(SCC(=O)O)c(O)c3ccccc23)cc1 |  | inconclusive: 11.2 µM [inhibitor, full curve, poor fit]
21 | CCN(CC)CCOC(=O)c1ccc(N/C=C(/C#N)c2nc(-c3ccc(OC)cc3)cs2)cc1 |  | inconclusive: 50.1 µM [inhibitor, partial curve, poor fit]
22 | CCOCCn1cnc2sc(C(=O)Nc3ccccc3C(=O)OC)c(C)c2c1=O | inactive: 29.4% | 
23 | Cc1ccc(OCCN2CCOCC2)cc1C | inactive: 37.6% | 

Row | Structure (SMILES) | activity change, negative = inhibition | Potency
24 | Nc1nc(N)c2[nH]c(=S)[nH]c2n1 |  | inconclusive: 15.8 µM [inhibitor, partial curve, poor fit]
25 | COc1cccc(CN2CCN(c3ncccn3)CC2)c1 |  | inconclusive: 56.2 µM [inhibitor, partial curve, poor fit]
26 | COCCSc1ccccc1C(=O)NCc1ccc2c(c1)OCO2 | inactive: 31.9% | 
27 | O=C(CNC1CCCCCC1)c1cccs1 |  | inconclusive: 39.8 µM [inhibitor, single point]
28 | O=C(Nc1ccc(Cl)c(Cl)c1)Nc1cc(S(=O)(=O)N2CCOCC2)ccc1N1CCCC1 |  | inconclusive: 17.8 µM [inhibitor, full curve]
29 | Cc1cc(OCCN2CCC(Cc3ccccc3)CC2)ccc1[N+](=O)[O-] |  | inconclusive: 17.8 µM [inhibitor, full curve]
30 | O=C(Nc1cccc(N2CCCC2)c1)c1cccs1 |  | inconclusive: 22.4 µM [inhibitor, partial curve, poor fit]
31 | O=C(/C=C/c1ccco1)Nc1cccc2cccnc12 |  | inconclusive: 35.5 µM [inhibitor, partial curve]
32 | CCOC(=O)c1c(C)[nH]c(C)c1C(=O)COC(=O)/C=C/c1ccccc1[N+](=O)[O-] |  | inconclusive: 20 µM [inhibitor, full curve]
33 | CN(C)CC(C)(C)CNC(=O)C1CCN(Cc2ccccc2O)CC1 |  | inconclusive: 50.1 µM [inhibitor, partial curve]
34 | Clc1cccc(C2=NC(c3cccs3)=Nc3ccc(Br)cc3N2)c1 |  | inconclusive: 12.6 µM [inhibitor, full curve]
35 | COC(CNc1ncnc2c1cnn2C)OC | inactive: 25.8% | 
36 | COc1ccc(S(=O)(=O)N2CCN(Cc3cccc([N+](=O)[O-])c3)CC2)cc1 |  | inconclusive: 56.2 µM [inhibitor, single point]
37 | O=C(Nc1ccc(N2CCCCC2)cc1)c1ccc2ccccc2n1 |  | inconclusive: 14.1 µM [inhibitor, full curve]
38 | CCN(CC)c1ccc(/C=N/n2c(-c3ccccc3Br)n[nH]c2=S)cc1 |  | inconclusive: 39.8 µM [inhibitor, partial curve]
39 | COc1cc(CN2CCN(Cc3ccc(C)cc3)CC2)c([N+](=O)[O-])cc1OC |  | inconclusive: 14.1 µM [inhibitor, full curve, poor fit]
40 | COc1ccccc1-n1cnnc1SCC(=O)c1cc(C)n(Cc2cccs2)c1C |  | inconclusive: 14.1 µM [inhibitor, partial curve, poor fit]
41 | Fc1ccccc1CN1CCC(Cc2ccccc2)CC1 |  | inconclusive: 50.1 µM [inhibitor, partial curve, poor fit]
42 | CC1CN(S(=O)(=O)c2ccc(C(=O)OCc3ccc(C#N)cc3)cc2)CC(C)O1 (stereo not drawn) | inactive: 47.1% | 
43 | CC(C)CN1CCC(C(=O)N2CCN(c3ccccc3F)CC2)CC1 |  | inconclusive: 15.8 µM [inhibitor, partial curve, poor fit]
44 | O=C(CN1C(=O)COc2ccc(S(=O)(=O)N3CCCCCC3)cc21)N1CCN(c2ccc(F)cc2)CC1 | inactive: 12.8% | 
45 | C#CCOCCOCCOCCNc1nc(N2CCN(C(=O)CCCCCCCCCCNC(=O)[C@H]([C@@H](C)CC)n3cc(CCCCCN)nn3)CC2)nc(N2CCN(C(=O)CCCCCCCCCCNC(=O)[C@@H]([C@H](C)O)n3cc(C)nn3)CC2)n1 |  | inconclusive: 70.8 µM [inhibitor, partial curve]
46 | Cc1cc(C)cc(N(C(=O)Cn2nnc3ccccc32)C(C(=O)NCc2ccco2)c2ccncc2)c1 (stereo not drawn) | inactive: 24.2% | 

Row | Structure (SMILES) | activity change, negative = inhibition | Potency
47 | COc1ccccc1/C=C1\SC(=S)N(CCC(=O)Nc2ccc(C(=O)O)c(O)c2)C1=O |  | inconclusive: 28.2 µM [inhibitor, partial curve]
48 | CCOc1ccc(CN2CCN(Cc3ccc4c(c3)c3ccccc3n4CC)CC2)cc1 |  | inconclusive: 12.6 µM [inhibitor, full curve, poor fit]
49 | CCc1nnc(NS(=O)(=O)c2ccc(NC(=S)Nc3ccc(F)cc3)cc2)s1 | inactive: 13.5% | 
50 | CCC(=O)c1ccc(OCC(O)CNCc2ccc(F)cc2)cc1 (stereo not drawn) |  | inconclusive: 0.708 µM [inhibitor, full curve, poor fit]
51 | NC(=O)c1ccccc1NC(=O)CS(=O)(=O)Cc1ccccc1 | inactive: -16% | 
52 | COc1ccc(N2CCN(c3nc4ccc(C(=O)c5ccccc5)cc4n4cnnc34)CC2)cc1 |  | inconclusive: 8.91 µM [inhibitor, partial curve, poor fit]
53 | Cc1cc(C)cc(NC(=O)COC(=O)Cn2cnc3c2c(=O)n(C)c(=O)n3C)c1 |  | inconclusive: 89.1 µM [inhibitor, single point]
54 | O=C(Nc1cccnc1)c1ccc(Cl)c(S(=O)(=O)N2CCc3ccccc32)c1 | inactive: -2.5% | 
55 | COc1ccc(-c2noc(CCC(=O)O)n2)cc1 | inactive: 14% | 
56 | CCOC(=O)c1scc(-c2ccccc2)c1S(=O)(=O)Nc1cc(Cl)c(OC)cc1OC |  | inconclusive: 79.4 µM [inhibitor, partial curve, poor fit]
57 | Cn1c(-c2ccc3c(c2)OCO3)cnc1NCc1ccccc1Cl |  | inconclusive: 22.4 µM [inhibitor, full curve]
58 | COc1ccc(Br)cc1C(=O)NC(=S)Nc1ccc(Cl)c(C(=O)O)c1 |  | inconclusive: 35.5 µM [inhibitor, partial curve, poor fit]
59 | COc1ccccc1-n1cnc2cc(NCc3cccs3)ccc21 |  | inconclusive: 56.2 µM [inhibitor, single point]
60 | C=C(C)C(=O)Nc1cccc(C2=NOC3(C2)C[C@@H](C(N)=O)N(C(=O)/C=C/CC)C3)c1 (stereo partly drawn) |  | active: 10 µM
61 | Cc1ccc(-n2nc(C)c3c(C(=O)NCc4ccccc4)cc(C4CC4)nc32)cc1 | inactive: 14.1% | 
62 | CCCCCCCCNC(=S)NCCN1CCCCC1 |  | inconclusive: 15.8 µM [inhibitor, partial curve, poor fit]
63 | Nc1ccc(N2CCN(c3ccc(F)cc3)CC2)cc1 |  | inconclusive: 50.1 µM [inhibitor, partial curve]
64 | Cc1nn(-c2ccccc2)c(Cl)c1/C=C1\SC(=S)N(CCCCCC(=O)O)C1=O |  | inconclusive: 39.8 µM [inhibitor, partial curve]
65 | CC(C)(C)C1=CC(=O)C(N2CCOCC2)=CC1=O |  | inconclusive: 56.2 µM [inhibitor, single point]
66 | CN1CCc2c(sc3c2C(=O)NC(c2cn(Cc4ccccc4)c4ccccc24)N3)C1 (stereo not drawn) |  | inconclusive: 50.1 µM [inhibitor, single point]
67 | COc1ccc(OC)c2cc3ccccc3cc12 |  | inconclusive: 2.82 µM [inhibitor, partial curve, poor fit]
68 | Cc1c(C(=O)Oc2cccc3cccnc23)cccc1[N+](=O)[O-] |  | inconclusive: 79.4 µM [inhibitor, partial curve, poor fit]
